From paper PMC4336329 (PLoS ONE, 2015)
The whole screen tested about 310,000 compounds, of which about 14,000 (4.5%) showed an effect of 50% or more. Effects have a minus sign here. The list shows a part of the results.

Target: human ether-à-go-go-related gene (hERG) potassium channel (human, UniProt Q12809)
Assay: primary screen, population patch clamp on CHO cells stably expressing hERG
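Note: peak tail current of the secondary pulse compared with the same well before compound.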

Sequence of human ether-à-go-go-related gene (hERG) potassium channel (Q12809 whole entry, looked up): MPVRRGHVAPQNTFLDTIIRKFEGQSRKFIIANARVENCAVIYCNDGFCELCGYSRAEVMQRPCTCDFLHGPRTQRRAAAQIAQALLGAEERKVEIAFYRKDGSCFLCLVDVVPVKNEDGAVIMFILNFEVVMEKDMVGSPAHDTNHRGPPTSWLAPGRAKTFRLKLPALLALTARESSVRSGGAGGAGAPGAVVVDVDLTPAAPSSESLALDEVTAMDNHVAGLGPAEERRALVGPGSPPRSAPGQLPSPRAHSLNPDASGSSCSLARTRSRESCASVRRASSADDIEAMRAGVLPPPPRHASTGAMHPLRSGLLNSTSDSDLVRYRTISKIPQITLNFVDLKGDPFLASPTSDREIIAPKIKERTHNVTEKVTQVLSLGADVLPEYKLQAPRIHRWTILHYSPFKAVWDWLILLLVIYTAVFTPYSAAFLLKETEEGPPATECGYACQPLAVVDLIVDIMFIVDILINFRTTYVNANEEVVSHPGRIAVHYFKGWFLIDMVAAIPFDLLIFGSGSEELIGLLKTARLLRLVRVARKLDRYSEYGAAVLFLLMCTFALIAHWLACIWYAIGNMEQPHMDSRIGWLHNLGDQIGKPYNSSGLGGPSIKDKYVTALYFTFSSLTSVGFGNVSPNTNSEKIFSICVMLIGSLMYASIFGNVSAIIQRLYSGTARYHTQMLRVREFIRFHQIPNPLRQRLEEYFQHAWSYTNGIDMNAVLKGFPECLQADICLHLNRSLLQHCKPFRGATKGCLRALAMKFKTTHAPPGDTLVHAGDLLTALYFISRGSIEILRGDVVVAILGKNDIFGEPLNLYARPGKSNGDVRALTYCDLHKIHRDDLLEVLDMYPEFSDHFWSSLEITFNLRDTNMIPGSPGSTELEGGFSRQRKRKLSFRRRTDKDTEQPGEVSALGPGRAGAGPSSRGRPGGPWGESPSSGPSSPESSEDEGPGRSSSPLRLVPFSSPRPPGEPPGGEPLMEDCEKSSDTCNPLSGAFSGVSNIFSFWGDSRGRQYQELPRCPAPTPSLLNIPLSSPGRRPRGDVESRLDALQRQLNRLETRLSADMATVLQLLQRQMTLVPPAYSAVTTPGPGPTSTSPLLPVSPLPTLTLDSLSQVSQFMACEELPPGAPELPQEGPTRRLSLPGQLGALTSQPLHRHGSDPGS

SMILES | hERG current change (%, negative = inhibition) at 10uM [%]
O=C(CCC1CCCCC1)NNC(=O)NC12CC3CC(CC(C3)C1)C2 | 13.2
CC(C)NC(=O)C(c1ccc(F)cc1)N(C(=O)CCC(=O)Nc1ccccn1)c1ccccc1F (centres unmarked) | 13.8
O=c1cc(N2CCN(c3ccccc3Cl)CC2)[nH]c(=O)n1Cc1ccc(F)cc1 | -27.6
Cc1ccc(C(=O)N(Cc2ccccc2)C(C)(C)C)cc1C | -14.9
O=C(Nc1ccccc1C(=O)NCc1cccnc1)c1ccc(Cl)cc1Cl | -20.2
CC(C)C(=O)OCc1cn(-c2ccc(Cl)c(Cl)c2)nn1 | 13
O=C(CSc1nnc(-c2cccs2)n1-c1ccccc1)NCc1ccco1 | -73
CC(Nc1ccc(Cl)cc1)c1cc(Cl)ccc1O (centres unmarked) | -7.79
O=C(Nc1ccccc1)OC1C2CCC1C(N1CCCCC1)CC2 (centres unmarked) | -37.5
O=C1CC(c2ccco2)CC2=C1C=Nc1ccccc1N2 (centres unmarked) | -24.9
Cc1nc2sc(C(=O)c3ccccc3)c(N)c2c2c1CCCC2 | 13.1
COc1cc2nc(SCC(N)=O)n(CCC3=CCCCC3)c(=O)c2cc1OC | -10.9
COc1ccc(-c2csc(Nc3ccccn3)n2)cc1 | 24.2
Cc1ccc(C(=O)n2c(N)nc3ccccc32)cc1 | 17.2
COc1ccccc1N1CCN(C(=O)c2ccc3c(c2)CCN3S(C)(=O)=O)CC1 | -3.19
COc1cccc(CNC(=O)c2cc(S(=O)(=O)N3CCCC3)cn2C)c1 | -4.9
c1ccc(CCCCNCC2COc3ccccc3O2)cc1 (centres unmarked) | -28.5
CCOC(=O)c1cc(CC)sc1NC(=O)COC(=O)c1cnccn1 | 0.404
C=CCn1c(SCC(=O)Nc2ccccc2F)nc2ccccc2c1=O | 5.56
COc1ccc(OCc2cc(C(=O)N3CCCCCCC3)no2)c(Cl)c1 | -33.9
Cc1ccc(NC(=S)N2CCCC(c3nc4ccccc4[nH]3)C2)cc1 (centres unmarked) | 6.05
COc1ccc(C)cc1NC(=O)CNC(c1ccccc1)c1ccccc1 | 6.01

SMILES | hERG current change (%, negative = inhibition) at 10uM [%]
Cc1ccc(NC(=O)CC(N)=S)cc1 | 10.2
CCC(=O)Nc1nnc(SCC(=O)NCCc2ccc(OC)c(OC)c2)s1 | 35.5
CCN(CC)C(NC(=O)Cc1ccccc1)C(Cl)(Cl)Cl (centres unmarked) | 7.67
CCCc1[nH]n(-c2nc3ccccc3s2)c(=O)c1C=NCCN1CCOCC1 | -34.5
Cc1cc(N2CCN(C3CCCC3)CC2)n2c(nc3ccccc32)c1C#N | -12.9
O=c1ccc2ccc(OCCOc3cccc(Cl)c3)cc2o1 | 3.9
COc1ccc(-c2[nH]ncc2CNCCc2ncccc2C)cc1F | -41.7
COc1ccc(-n2c(SCC(=O)Nc3cc(C)on3)nc3c(c2=O)SCC3)cc1OC | 10.9
O=C(Nc1ccc2c(c1)CCC2)c1ccccc1F | 3.1
CCC(=O)Nc1ccc2c(c1)nc(CCN1CCN(c3ccccc3)CC1)n2C | -33.5
CCOC(=O)CCSc1nc(C)c2cc(C)c(C)cc2n1 | -12.8
Cc1ncc([N+](=O)[O-])n1Cc1ccc(F)cc1 | 10.5
COc1ccc(-n2c(Cc3cccn3C)nnc2SCC(=O)N2CCC(C)CC2)cc1 | -9.64
O=C(c1ccc([N+](=O)[O-])c(CS(=O)(=O)c2ccc(Cl)cc2)c1)N1CCCCC1 | -32.4
O=C(N=C1c2ccccc2CN1c1ccccc1)c1cccc([N+](=O)[O-])c1 | -1.72
CCCCCN1C/C=C\C(c2ccc(OC)cc2)N(Cc2ccc(F)cc2)C(=O)C1 (centres unmarked) | -25.3
Cc1nn(-c2ccc(F)cc2)c2c1cc(C#N)c1nc3ccccc3n12 | 9.66
N/C(=N\OC(=O)COc1ccc(Br)cc1Cl)c1ccncc1 | 6.82
Cc1[nH]c2ccc(F)cc2c1CCN(Cc1ccncc1)C(=S)Nc1ccc(F)cc1 | -38.4
COC(=O)c1sc2ncccc2c1OCc1ccc(Cl)cc1 | 1.03
Cc1ccc(NC(=O)c2nc3nccc(C)n3n2)c(C)c1 | 3.18
CCCc1sc(N/N=C/c2ccccn2)nc1-c1ccc(F)cc1 | 9.31
